Source: PubChem BioAssay AID1345082 (National Center for Advancing Translational Sciences (NCATS), 2018)
The whole screen tested about 94,000 compounds, of which about 4,000 (4.3%) were called active. Inconclusive results, whose numbers are uncertain, are shown with a selection of clear calls. Calls come from the whole dose curve; as a rule, active = well fitted inhibition curve with a large enough effect; inconclusive = small, poorly fitted or top-dose-only effect; inactive = no such curve, though single readings can be large or run the other way. Where the call is inconclusive, the potency comes from a doubtful curve fit.

Assay: Cytotoxic Profiling in NIH 3T3 Cell Line of Diverse Libraries Using Quantitative High-Throughput Screening; note: nearly all actives have a fitted effect of over 55% in size
Details: NIH 3T3 viability, CellTiter-Glo ATP luminescence, 48-72 h; series mostly up to 96.7 µM; activity change, negative = cytotoxicity: at the top concentration
How it was run: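 Cytotoxicity is measured as loss of cellular ATP: NIH 3T3 cells (400/well) are exposed to compound for 48 or 72 hr at 37 °C, then CellTiter-Glo luminescence is imaged after 10 min at room temperature.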
% is set by controls: 0 for no effect and ±100 for the full control effect; potency is the fitted concentration of half-maximal effect; tags give direction and shape of the fitted curve.

Structure (SMILES) | Potency | activity change, negative = cytotoxicity | outcome
O=C1Nc2ccccc2C12CCN(Cc1cccc3ccccc13)CC2 | inconclusive: 50.1 µM [inhibitor, partial curve, poor fit] | – | –
COc1cc2c(cc1OC1CCCC1)NC(=O)C21CCN(c2ncccn2)CC1 | inconclusive: 89.1 µM [inhibitor, partial curve] | – | –
COc1ccc(-c2cn(C[C@H]3CC4CCN3C[C@@H]4C(=O)NCc3ccc(F)cc3)nn2)cc1 (stereo not given in full) | inconclusive: 56.2 µM [inhibitor, partial curve, poor fit] | – | –
Cn1nc(C2CCCC2)cc1[C@H]1CN2CC[C@H]1C[C@@H]2CNC(=O)Nc1ccccc1 | inconclusive: 112 µM [inhibitor, partial curve, poor fit] | – | –
COc1cc2c(cc1Oc1cccc(N(C)C)c1)NC(=O)C21CCN(Cc2nccn2C)CC1 | – | inactive: -17.8% | –
Cn1nc(-c2cccs2)cc1[C@H]1CN2CC[C@H]1C[C@@H]2CNS(C)(=O)=O | – | inactive: -15.8% [at 174 µM] | –
CCOC(=O)[C@H]1CN(C(=O)c2ccc(F)cc2)[C@]2(C)C(=O)N(CCOC)c3ccccc3[C@H]12 | inconclusive: 31.6 µM [inhibitor, partial curve] | – | –
O=C(c1ccncc1)N1CC2CCC(C1)N2Cc1cccc(Cl)c1 | – | inactive: -1.75% | –
COc1ccc(-c2cc([C@H]3CN4CC[C@H]3C[C@@H]4COC(=O)Nc3ccc(C(C)C)cc3)n(C)n2)cc1OC | inconclusive: 22.4 µM [inhibitor, full curve, poor fit] | – | –
COc1ccc(CNC(=O)N2[C@H]3CC[C@@H]2c2cnc(-c4ccccc4)nc2C3)cc1 | – | inactive: -43.2% | –
Cc1nc(-c2ccc(C(F)(F)F)cc2)cc([C@H]2CN3CC[C@H]2C[C@@H]3CNC(=O)C(C)(C)C)n1 | active: 20 µM | – | –
COc1ccc(OC)c(S(=O)(=O)NC[C@H]2C[C@@H]3CCN2C[C@@H]3c2cc(-c3ccccc3OC)nn2C)c1 | – | inactive: -17.7% | –
CC(C)C(=O)N1CCC2(CC1)NCc1ccccc1-n1ccnc12 | inconclusive: 63.1 µM [inhibitor, partial curve, poor fit] | – | –
CCOC(=O)[C@H]1CN(C(=O)c2ccc3c(c2)OCO3)[C@]2(C)C(=O)N(CC3CC3)c3ccccc3[C@H]12 | inconclusive: 31.6 µM [inhibitor, single point] | – | –
c1ccc(CN2C[C@H](c3ccc4c(c3)OCO4)[C@@H]3[C@H]2C2CCN3CC2)nc1 | inconclusive: 70.8 µM [inhibitor, single point] | – | –
Cc1ccccc1C(=O)N1CCC2(CC1)NCc1ccccc1-n1ccnc12 | inconclusive: 50.1 µM [inhibitor, partial curve, poor fit] | – | –
CSc1cccc(NC(=O)NC[C@H]2C[C@@H]3CCN2C[C@@H]3CN(C)CCc2ccccn2)c1 | active: 79.4 µM | – | –
COc1ccc(-c2cc([C@H]3CN4CC[C@H]3C[C@@H]4CNC(=O)Nc3ccccc3)n(C)n2)cc1OC | inconclusive: 79.4 µM [inhibitor, partial curve] | – | –
COc1ccc(NC(=O)NC[C@H]2C[C@@H]3CCN2C[C@@H]3c2cc(-c3ccccc3)nn2C)cc1 | inconclusive: 44.7 µM [inhibitor, partial curve, poor fit] | – | –
COc1ccc(C(=O)N2[C@H]3CC[C@@H]2c2cnc(C)nc2C3)cn1 | inconclusive: 39.8 µM [inhibitor, partial curve, poor fit] | – | –

Structure (SMILES) | Potency | activity change, negative = cytotoxicity | outcome
CCOC(=O)[C@H]1CN(C(=O)Cc2ccc(OC)cc2)[C@]2(C)C(=O)N(CC3CC3)c3ccccc3[C@H]12 | inconclusive: 20 µM [inhibitor, partial curve, poor fit] | – | –
O=S1(=O)NCC2(CCN(Cc3ccsc3)C2)Oc2ncccc21 (stereo not given) | – | – | inactive
COc1ccccc1-c1cc([C@H]2CN3CC[C@H]2C[C@@H]3COC(=O)NC(C)C)nc(C)n1 | active: 44.7 µM | – | –
Cc1nc(-c2ccc(N(C)C)cc2)cc([C@H]2CN3CC[C@H]2C[C@@H]3CNC(=O)C2CCC2)n1 | active: 89.1 µM | – | –
CCc1cnc(N2CCC3(CC2)C(=O)Nc2cc(OC4CCCC4)c(OC)cc23)nc1 | inconclusive: 56.2 µM [inhibitor, partial curve, poor fit] | – | –
COc1ccc(S(=O)(=O)NC[C@H]2C[C@@H]3CCN2C[C@@H]3CN2CCc3ccccc32)cc1 | active: 39.8 µM | – | –
N#Cc1cccc(-c2ccc3n(c2=O)C[C@H]2C[C@@H]3CN(C(=O)CSCC(=O)O)C2)c1 | – | inactive: 2.85% [at 174 µM] | –
Cc1noc(C)c1C(=O)N1C2CCC1CN(Cc1cccnc1)C2 | inconclusive: 50.1 µM [inhibitor, partial curve, poor fit] | – | –
CCC(CC)c1cc([C@H]2CN3CC[C@H]2C[C@@H]3CNS(=O)(=O)Cc2ccccc2)nc(-c2ccncc2)n1 | active: 22.4 µM | – | –
COc1cc2c(cc1OC1CCCC1)NC(=O)C21CCN(c2ncc(F)cn2)CC1 | active: 89.1 µM | – | –
O=C(C1CCOCC1)N1CCC2(CC1)NCc1ccccc1-n1ccnc12 | inconclusive: 20 µM [inhibitor, full curve, poor fit] | – | –
CCC1(N2CCN(C(=O)Cc3c[nH]c4ccccc34)CC2)CCN(S(C)(=O)=O)C1 (stereo not given) | – | inactive: -22.1% | –
Cc1nc(-c2cccs2)cc([C@H]2CN3CC[C@H]2C[C@@H]3COC(=O)Nc2ccc(C(C)C)cc2)n1 | active: 8.91 µM | – | –
O=C(O)CCCC(=O)N1C[C@@H]2C[C@H](C1)c1ccc(-c3ccc(Cl)cc3)c(=O)n1C2 | – | – | inactive [at 174 µM]
Cc1cc(CN2CCC23Cc2ccccc2NC3=O)no1 (stereo not given) | – | inactive: 1.3% [at 138 µM] | –
CCCS(=O)(=O)NC[C@H]1C[C@@H]2CCN1C[C@@H]2c1cc(-c2cccs2)nn1C | inconclusive: 126 µM [inhibitor, single point] | – | –
O=C1NC2(CCCN(Cc3cccnc3)C2)COc2ccccc21 (stereo not given) | active: 35.5 µM | – | –
Cc1nc(-c2ccc(N(C)C)cc2)cc([C@H]2CN3CC[C@H]2C[C@@H]3COC(=O)Nc2ccccc2)n1 | active: 3.98 µM | – | –
COc1cc2c(cc1OC1CCCC1)NC(=O)C21CCN(c2nccs2)CC1 | inconclusive: 89.1 µM [inhibitor, partial curve, poor fit] | – | –
O=C(O)c1cn(Cc2ccccc2F)nn1 | – | inactive: 3.59% | –
